Assay results as given in article PMC4336329 (PLoS ONE, 2015).
Hit rate of the full screen: of about 310,000 compounds, about 14,000 (4.5%) showed an effect of 50% or more. The effect is printed as a negative number. This is one part of the list.

Biological target: human ether-à-go-go-related gene (hERG) potassium channel (human, UniProt Q12809)
Experiment: primary screen, population patch clamp on CHO cells stably expressing hERG
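Further: peak tail current of the secondary pulse compared with the same well before compound.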

human ether-à-go-go-related gene (hERG) potassium channel, sequence (Q12809 whole entry, looked up): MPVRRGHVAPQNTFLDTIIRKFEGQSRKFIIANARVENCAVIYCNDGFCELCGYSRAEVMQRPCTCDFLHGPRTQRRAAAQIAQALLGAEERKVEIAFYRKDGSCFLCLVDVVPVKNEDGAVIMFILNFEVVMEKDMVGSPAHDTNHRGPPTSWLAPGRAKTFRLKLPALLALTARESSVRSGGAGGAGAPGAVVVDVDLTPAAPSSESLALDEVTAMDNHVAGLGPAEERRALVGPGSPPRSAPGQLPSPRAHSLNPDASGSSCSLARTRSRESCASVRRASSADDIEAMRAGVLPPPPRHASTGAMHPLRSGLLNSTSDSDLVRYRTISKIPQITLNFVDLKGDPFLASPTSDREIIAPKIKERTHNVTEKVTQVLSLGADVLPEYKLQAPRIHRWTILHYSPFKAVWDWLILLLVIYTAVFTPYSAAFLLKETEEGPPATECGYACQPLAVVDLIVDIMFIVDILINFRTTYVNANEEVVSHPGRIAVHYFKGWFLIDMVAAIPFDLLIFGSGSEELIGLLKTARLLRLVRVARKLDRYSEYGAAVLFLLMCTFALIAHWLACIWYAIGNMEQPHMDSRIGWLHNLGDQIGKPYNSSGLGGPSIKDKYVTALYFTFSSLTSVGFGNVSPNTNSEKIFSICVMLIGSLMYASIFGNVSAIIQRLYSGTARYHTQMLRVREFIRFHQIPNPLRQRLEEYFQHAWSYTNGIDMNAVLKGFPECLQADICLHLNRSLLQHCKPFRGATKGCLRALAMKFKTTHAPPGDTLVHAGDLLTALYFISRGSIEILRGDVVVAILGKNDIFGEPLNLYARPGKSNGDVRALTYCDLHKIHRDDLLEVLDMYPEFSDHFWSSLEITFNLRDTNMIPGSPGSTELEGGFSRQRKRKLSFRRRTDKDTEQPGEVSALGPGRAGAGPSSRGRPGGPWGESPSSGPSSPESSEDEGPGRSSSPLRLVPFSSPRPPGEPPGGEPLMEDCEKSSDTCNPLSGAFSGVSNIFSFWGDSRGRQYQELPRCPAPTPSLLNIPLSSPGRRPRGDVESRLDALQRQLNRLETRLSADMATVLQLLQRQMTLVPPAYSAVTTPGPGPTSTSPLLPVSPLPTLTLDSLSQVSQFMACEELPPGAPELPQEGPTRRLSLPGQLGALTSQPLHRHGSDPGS

SMILES | hERG current change (%, negative = inhibition) at 10uM [%]
CCOc1ccccc1N1CCN(CC(=O)Nc2ncc(C)s2)CC1 | -4.05
S=C1NC(c2ccccc2)=NCN1c1ccccc1 | 3.7
COc1ccc(C(=O)c2ccccc2)c(O)c1 | -12.9
Cc1oc2cc(O)ccc2c(=O)c1N1C(=O)c2ccccc2C1=O | -9.01
O=c1c(Cc2ccc(Cl)cc2Cl)c(O)ccn1Cc1ccncc1 | 1.25
O=[N+]([O-])c1ccc2c(OCc3nnc(-c4ccccc4Br)o3)ncnc2c1 | -74.1
COc1cc(/C=N/N2CCN(C3c4ccccc4-c4ccccc43)CC2)cc(OC)c1OC | -7.37
Cc1ccc(C(=O)NCC(=O)OCCCOC(=O)CNC(=O)c2ccc(C)c(C)c2)cc1C | -28
Cc1ccc(S(=O)(=O)Nc2cccc(C(=O)NCCN3CCOCC3)c2)cc1F | -1.9
CN1CCN(C(c2ccc(C(F)(F)F)cc2)c2ccc3cccnc3c2O)CC1 (stereo not drawn) | -40.4
CCOC(=O)c1ccc(NS(=O)(=O)c2ccc3[nH]c(=O)[nH]c3c2)cc1 | 7.47
CC1CCC2(CC1)NC(=O)N(CC(=O)NCCc1ccc(F)cc1)C2=O (stereo not drawn) | -10.1
Cc1ccc(C(=O)Nc2nnc(CC(=O)N/N=C/c3ccncc3)s2)cc1 | 19.9
CCOC(=O)/C(=N\Nc1cc(Cl)ccc1Cl)N1CCOCC1 | 14.8
O=C(NCc1ccccc1)c1cccc(NS(=O)(=O)c2cccc3cccnc23)c1 | 6.09
O=C(Nc1ccc(-c2nc3ccccc3o2)cc1)c1ccc(N2C(=O)C3C4C=CC(C4)C3C2=O)cc1 (stereo not drawn) | 3.26
CCOC(=O)/C(=C\Nc1ccccc1C(F)(F)F)Sc1ncc(C(F)(F)F)cc1Cl | 12.3
O=C(NCC1CCCO1)c1cccs1 (stereo not drawn) | 4.89
O=C1c2cccc3c(O)ccc(c23)C(=O)N1Cc1ccccc1 | 2.96

SMILES | hERG current change (%, negative = inhibition) at 10uM [%]
Cc1ccsc1CNCc1cc(Cl)ccc1O.Cl | -16.6
COc1cccc(NC2=Nc3cccc4cccc2c34)c1 | -35.9
CC1CC(NS(=O)(=O)c2cccs2)CC(C)(C)C1 (stereo not drawn) | 4.96
O=c1c(NCCc2ccc(Cl)cc2)c(-c2ccccc2)c1=O | 5.81
CCn1c(COc2ccc3ccccc3c2C)nnc1SCC(=O)Nc1cccc(C(=O)O)c1 | -22.3
COc1ccc(CNC(=O)CN(C(=O)c2csnn2)c2cccc3c2CCCC3)cc1 | -14.9
CC(C(=O)NCC1(c2ccccc2)CCCC1)N1CCCC1.Cl (stereo not drawn) | -9.9
CCOc1ccc(NC(=O)CN(C)C(=O)COc2cccc3c2OC(C)(C)C3)cc1OCC | -6.68
CCC1(CC)Cc2ccccc2C(CC(=O)N2CCOCC2)=N1.O=S(=O)(O)O | -9.43
COc1cc(/C=N/NC(=O)c2ccccc2O)ccc1OCC(=O)Nc1ccccc1 | 34.6
COCCn1c(-c2ccc(Br)cc2)csc1=Nc1cccnc1 | -14.2
CCOC(=O)C1CCCN(C(=O)c2sc3nc(-c4ccc(OC)cc4)cn3c2C)C1 (stereo not drawn) | -55.4
CCc1cc(C(=O)c2ccc(OC)cc2)c(NC(=O)CN2CCCC2)s1 | -12.4
Cc1ccc(C(=O)c2ccccc2C(=O)OCC(=O)N2C(C)CCCC2C)cc1 (stereo not drawn) | -17.6
COC(=O)C(C)(C)ONC(=O)Nc1ccccc1Cl | 27.5
COc1ccc(N(CC(=O)N2CCN(c3ccccc3F)CC2)S(=O)(=O)c2ccc(C)cc2)cc1 | -1.28
CC(NC(=O)NC(N)=O)(C(F)(F)F)C(F)(F)F | -2.43
C=CCNC(=O)CCCOc1ccc(C)cc1 | -1.82
CC1(C)CC2(CCCN(CC(O)(c3ccccc3)c3ccccc3)C2)CCO1.Cl (stereo not drawn) | 2.05

SMILES | hERG current change (%, negative = inhibition) at 10uM [%]
CCOC(=O)C(=O)NNc1cccc(C)c1C | 13
COc1cccc(/C=N/NC(=S)Nc2cccc(C(=O)O)c2)c1 | 23.8
CCN1CCCC1CNS(=O)(=O)c1cccc(C(F)(F)F)c1.Cl (stereo not drawn) | 15.7
O=C(NC1CCCCC1)C(=S)NCCc1ccccc1 | -4.12
CCCCC(=O)N1CCN(c2nc3ccc(Br)cc3s2)CC1 | -69.4
COc1ccc(N=Nc2c(C)[nH][nH]c2=O)cc1 | 31.8
CCOc1ccc(NC(=S)N2CCN(c3ccc(N4CCOCC4)nn3)CC2)cc1 | -29.8
O=C(NCCN1C(=O)S/C(=C/c2cccnc2)C1=O)C1=NN(c2ccccc2)C(=O)CC1 | -40.2
Cc1cc(C(=O)c2ccc3ccccc3c2)c(C)o1 | 2.09
CCOC(=O)c1ccccc1NC(=O)c1cccs1 | 9.27
Cc1cccc(N(C)S(=O)(=O)c2ccc3c(c2)CCC(=O)N3)c1 | -21.7
CC(CNC(=O)c1ccccc1Cl)c1ccccc1 (stereo not drawn) | 12.6
COc1ccc(N2CCc3c(C)nc4c(OC)cc(OC)cc4c32)cc1 | -75
CCN1CCN(C(=O)CN2C(=O)c3cccc4cccc2c34)CC1 | -1.46
Cc1cccc(C2=NN(c3ccc(Br)cc3)[C@@H](C(=O)N3CCOC3=O)[C@@H]2c2ccc(F)cc2)c1 | 27.8
Fc1ccc(NC(=S)NCCN2CCOCC2)c(F)c1F | 13.8
O=C(Nc1ccccc1)c1ccc2c(c1)CCN2S(=O)(=O)c1ccccc1 | 7.77
O=C(NCCCc1ccccc1)C1CCC(=O)N(CCc2ccc(Cl)cc2)C1 (stereo not drawn) | -79.8
COc1ccc(CNC(=O)c2cccc(N(C)C)c2)cc1 | 5.01
